# Laboratory results taken from the supplement of paper PMC8728848.
# Some of the results follow.
# B1: SGC, Q9M345 (protein)
# chain: QNLNFTYNGFHPPLTDISLQGLATVTPNGLLKLTNTSVQKTGHAFCTERIRFKDSQNGNVSSFSTTFVFAIHSQIPTLSGHGIAFVVAPTLGLPFALPSQYIGLFNISNNGNDTNHIFAVEFDTIQSSEFGDPNDNHVGIDLNGLRSANYSTAGYRDDHDKFQNLSLISRKRIQVWIDYDNRSHRIDVTVAPFDSDKPRKPLVSYVRDLSSILLEDMYVGFSSATGSVLSEHFLVGWSFRLNGEAPMLSLSKLPKLPRFEPRRIS
# Key:
# Assay in all cases: glycan array binding signal (z-score within array); higher = stronger binding
# Settings in all cases: glycan notation: IUPAC condensed, linker removed
# [1] = biological target: Fuc(a1-2)[GalNAc(a1-3)]Gal(b1-3)GlcNAc(b1-3)GalNAc
# Procedure, shortened: (§1)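 Columns mapping to the same glycan were averaged after glycan names were converted to IUPAC-condensed notation. The data come from 3228 arrays in the Consortium for Functional Glycomics database, limited to those with an available protein sequence. Binding is reported as a within-array Z-score averaged across arrays of one protein sequence and across linkers.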
# [2] = biological target: Fuc(a1-2)[GalNAc(a1-3)]Gal(b1-3)GlcNAc(b1-6)GalNAc
# Procedure, shortened: as §1
# [3] = biological target: Fuc(a1-2)[GalNAc(a1-3)]Gal(b1-4)Glc
# Procedure, shortened: as §1
# [4] = biological target: Fuc(a1-2)[GalNAc(a1-3)]Gal(b1-4)GlcNAc
# Procedure, shortened: as §1
# [5] = biological target: Fuc(a1-2)[GalNAc(a1-3)]Gal(b1-4)GlcNAc(b1-2)Man
# Procedure, shortened: as §1
# [6] = biological target: Fuc(a1-2)[GalNAc(a1-3)]Gal(b1-4)GlcNAc(b1-2)Man(a1-3)[Fuc(a1-2)[GalNAc(a1-3)]Gal(b1-4)GlcNAc(b1-2)Man(a1-6)]Man(b1-4)GlcNAc(b1-4)GlcNAc
# Procedure, shortened: as §1
# [7] = biological target: Fuc(a1-2)[GalNAc(a1-3)]Gal(b1-4)GlcNAc(b1-2)Man(a1-3)[Fuc(a1-2)[GalNAc(a1-3)]Gal(b1-4)GlcNAc(b1-2)Man(a1-6)]Man(b1-4)GlcNAc(b1-4)[Fuc(a1-6)]GlcNAc
# Procedure, shortened: as §1
# [8] = biological target: Fuc(a1-2)[GalNAc(a1-3)]Gal(b1-4)GlcNAc(b1-3)Gal(b1-4)GlcNAc
# Procedure, shortened: as §1
# [9] = biological target: Fuc(a1-2)[GalNAc(a1-3)]Gal(b1-4)GlcNAc(b1-3)Gal(b1-4)GlcNAc(b1-3)Gal(b1-4)GlcNAc
# Procedure, shortened: as §1
# [10] = biological target: Fuc(a1-2)[GalNAc(a1-3)]Gal(b1-4)GlcNAc(b1-3)GalNAc
# Procedure, shortened: as §1
# [11] = biological target: Fuc(a1-2)[GalNAc(a1-3)]Gal(b1-4)GlcNAc(b1-3)[Fuc(a1-2)[GalNAc(a1-3)]Gal(b1-4)GlcNAc(b1-6)]GalNAc
# Procedure, shortened: as §1
# [12] = biological target: Fuc(a1-2)[GalNAc(a1-3)]Gal(b1-4)GlcNAc(b1-6)GalNAc
# Procedure, shortened: as §1
# [13] = biological target: Fuc(a1-2)[GalNAc(a1-3)]Gal(b1-4)[Fuc(a1-3)]GlcNAc
# Procedure, shortened: as §1
# [14] = biological target: Fuc(a1-2)[GalNAc(a1-3)]Gal(b1-4)[Fuc(a1-3)]GlcNAc(b1-3)GalNAc
# Procedure, shortened: as §1
# [15] = biological target: Fuc(a1-2)[GalNAc(a1-4)]Gal(b1-4)GlcNAc
# Procedure, shortened: as §1
# [16] = biological target: Fuc(a1-2)[GalNAc(b1-3)]Gal
# Procedure, shortened: as §1
# Fuc(a1-3)GlcNAc = biological target: Fuc(a1-3)GlcNAc
# Procedure, shortened: as §1
# [17] = biological target: Fuc(a1-3)[Gal(b1-4)]Glc6S
# Procedure, shortened: as §1
# [18] = biological target: Fuc(a1-3)[Gal(b1-4)]GlcNAc
# Procedure, shortened: as §1
# [19] = biological target: Fuc(a1-3)[Gal(b1-4)]GlcNAc(b1-2)Man
# Procedure, shortened: as §1
# [20] = biological target: Fuc(a1-3)[Gal(b1-4)]GlcNAc(b1-2)Man(a1-3)[Fuc(a1-3)[Gal(b1-4)]GlcNAc(b1-2)Man(a1-6)]Man(b1-4)GlcNAc(b1-4)GlcNAc
# Procedure, shortened: as §1
# [21] = biological target: Fuc(a1-3)[Gal(b1-4)]GlcNAc(b1-2)Man(a1-3)[Fuc(a1-3)[Gal(b1-4)]GlcNAc(b1-2)Man(a1-6)]Man(b1-4)GlcNAc(b1-4)[Fuc(a1-6)]GlcNAc
# Procedure, shortened: as §1
# [22] = biological target: Fuc(a1-3)[Gal(b1-4)]GlcNAc(b1-3)Gal(b1-3)[Fuc(a1-4)]GlcNAc
# Procedure, shortened: as §1
# [23] = biological target: Fuc(a1-3)[Gal(b1-4)]GlcNAc(b1-3)Gal(b1-4)[Fuc(a1-3)]GlcNAc
# Procedure, shortened: as §1
# [24] = biological target: Fuc(a1-3)[Gal(b1-4)]GlcNAc(b1-3)Gal(b1-4)[Fuc(a1-3)]GlcNAc(b1-3)Gal(b1-4)[Fuc(a1-3)]GlcNAc
# Procedure, shortened: as §1
# [25] = biological target: Fuc(a1-3)[Gal(b1-4)]GlcNAc(b1-3)GalNAc
# Procedure, shortened: as §1
# [26] = biological target: Fuc(a1-3)[Gal(b1-4)]GlcNAc(b1-6)GalNAc
# Procedure, shortened: as §1
# [27] = biological target: Fuc(a1-3)[Gal(b1-4)]GlcNAc(b1-6)[Gal(b1-3)GlcNAc(b1-3)]Gal(b1-4)Glc
# Procedure, shortened: as §1
# [28] = biological target: Fuc(a1-3)[Gal(b1-4)]GlcNAc6S
# Procedure, shortened: as §1
# [29] = biological target: Fuc(a1-3)[Gal3S(b1-4)]Glc
# Procedure, shortened: as §1
# [30] = biological target: Fuc(a1-3)[Gal3S(b1-4)]GlcNAc
# Procedure, shortened: as §1
# [31] = biological target: Fuc(a1-3)[Gal3S(b1-4)]GlcNAc6S
# Procedure, shortened: as §1
# [32] = biological target: Fuc(a1-3)[GalNAc(b1-4)]GlcNAc
# Procedure, shortened: as §1
# [33] = biological target: Fuc(a1-3)[GalNAc(b1-4)]GlcNAc6S
# Procedure, shortened: as §1
# Fuc(a1-4)GlcNAc = biological target: Fuc(a1-4)GlcNAc
# Procedure, shortened: as §1
# Fuc(b1-3)GlcNAc = biological target: Fuc(b1-3)GlcNAc
# Procedure, shortened: as §1
# Gal(a1-2)Gal = biological target: Gal(a1-2)Gal
# Procedure, shortened: as §1
# Gal(a1-3)Gal = biological target: Gal(a1-3)Gal
# Procedure, shortened: as §1
# Gal(a1-3)Gal(b1-3)GlcNAc = biological target: Gal(a1-3)Gal(b1-3)GlcNAc
# Procedure, shortened: as §1
# [34] = biological target: Gal(a1-3)Gal(b1-3)GlcNAc(b1-2)Man
# Procedure, shortened: as §1
# [35] = biological target: Gal(a1-3)Gal(b1-3)GlcNAc(b1-2)Man(a1-3)[Gal(a1-3)Gal(b1-3)GlcNAc(b1-2)Man(a1-6)]Man(b1-4)GlcNAc(b1-4)GlcNAc
# Procedure, shortened: as §1
# [36] = biological target: Gal(a1-3)Gal(b1-3)GlcNAc(b1-3)GalNAc
# Procedure, shortened: as §1
# [37] = biological target: Gal(a1-3)Gal(b1-3)GlcNAc(b1-6)GalNAc
# Procedure, shortened: as §1
# [38] = biological target: Gal(a1-3)Gal(b1-3)[Fuc(a1-4)]GlcNAc(b1-2)Man(a1-3)[Gal(a1-3)Gal(b1-3)[Fuc(a1-4)]GlcNAc(b1-2)Man(a1-6)]Man(b1-4)GlcNAc(b1-4)GlcNAc
# Procedure, shortened: as §1
# Gal(a1-3)Gal(b1-4)Glc = biological target: Gal(a1-3)Gal(b1-4)Glc
# Procedure, shortened: as §1
binder,measurement,setting,value
B1,glycan array binding signal (z-score),[1],-0.247
same,glycan array binding signal (z-score),[2],-0.445
same,glycan array binding signal (z-score),[3],-0.228
same,glycan array binding signal (z-score),[4],-0.353
same,glycan array binding signal (z-score),[5],-0.4
same,glycan array binding signal (z-score),[6],3.35
same,glycan array binding signal (z-score),[7],-0.094
same,glycan array binding signal (z-score),[8],-0.342
same,glycan array binding signal (z-score),[9],0.209
same,glycan array binding signal (z-score),[10],-0.344
same,glycan array binding signal (z-score),[11],-0.363
same,glycan array binding signal (z-score),[12],-0.321
same,glycan array binding signal (z-score),[13],0.152
same,glycan array binding signal (z-score),[14],0.292
same,glycan array binding signal (z-score),[15],1.12
same,glycan array binding signal (z-score),[16],-0.351
same,glycan array binding signal (z-score),Fuc(a1-3)GlcNAc,-0.371
same,glycan array binding signal (z-score),[17],-0.313
same,glycan array binding signal (z-score),[18],-0.36
same,glycan array binding signal (z-score),[19],-0.413
same,glycan array binding signal (z-score),[20],0.55
same,glycan array binding signal (z-score),[21],0.08
same,glycan array binding signal (z-score),[22],-0.373
same,glycan array binding signal (z-score),[23],-0.363
same,glycan array binding signal (z-score),[24],-0.373
same,glycan array binding signal (z-score),[25],-0.345
same,glycan array binding signal (z-score),[26],-0.253
same,glycan array binding signal (z-score),[27],-0.291
same,glycan array binding signal (z-score),[28],0.111
same,glycan array binding signal (z-score),[29],-0.335
same,glycan array binding signal (z-score),[30],-0.299
same,glycan array binding signal (z-score),[31],-0.241
same,glycan array binding signal (z-score),[32],-0.292
same,glycan array binding signal (z-score),[33],-0.115
same,glycan array binding signal (z-score),Fuc(a1-4)GlcNAc,-0.072
same,glycan array binding signal (z-score),Fuc(b1-3)GlcNAc,-0.232
same,glycan array binding signal (z-score),Gal(a1-2)Gal,-0.395
same,glycan array binding signal (z-score),Gal(a1-3)Gal,-0.031
same,glycan array binding signal (z-score),Gal(a1-3)Gal(b1-3)GlcNAc,-0.343
same,glycan array binding signal (z-score),[34],-0.369
same,glycan array binding signal (z-score),[35],1.46
same,glycan array binding signal (z-score),[36],-0.254
same,glycan array binding signal (z-score),[37],0.373
same,glycan array binding signal (z-score),[38],1.24
same,glycan array binding signal (z-score),Gal(a1-3)Gal(b1-4)Glc,0.068
